First the molecules themselves.
B1: CPEB3 Ribozyme (parent)
chain: UAACAGGGGGCCACAGCAGAAGCGUUCACGUCGCAGCCCCUGUCAGAUUCUGGUGAAUCUGCGAAUUCUGCUGUAUAUCUC

The source gives no read counts; variants with many changes may rest on few reads.

This note sets out measurements from the RNAGym collection of RNA variant scans (doi:10.1093/nar/gkz1192).

The data set covers variants of B1. Briefly: self-cleavage, relative activity (ratio to wild type); higher = more cleavage; in vitro, sequencing. Put shortly:
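CPEB3 self-cleaving ribozyme mutant libraries were made by rounds of error-prone PCR, barcoded, and transcribed in vitro with T7 RNA polymerase for 5 hours at 37°C. Cleavage occurred during transcription and a 15 min DNase I step before EDTA stop. RNAs were reverse transcribed with template switching and Illumina-sequenced, with DNA sequencing mapping barcodes to variants. Relative activity is the variant's cleaved/total read fraction divided by wild type's (minimum 5 reads), averaged across three batches.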
For C32U A77G U80C, the self-cleavage amounted to 0.19.
For C32A G52A A64G the value was 0.17; for U31G C38A A56G U80A, 0.08.
For C34G U51C G53A U67A U74C the value was 0.19.
Turning to A35C U60G A65G, the self-cleavage worked out at 0.1.
The result for U31C A35U A64U U69C reads 0.11.
For C32U A56U A75G the value was 0.13; for G33C C38U A45U G55U C68A, 0.1; for G33A A35G G46U, 0.17.
As for G33A U41C A56U U58C U69C, the self-cleavage was found to be 0.13.
For A35G A75U U78C the value was 1.28.
The result for A35G A75U U78A reads 1.27; that for U31C C32A A65G U74C, 0.09.
Consider U31C A45U A47G U51C A56U A65G U69C, for which the self-cleavage came to 0.03.
As for U31C U41C U54C U69C U72C, the self-cleavage was found to be 0.09.
Regarding C34A G46U U58C, the self-cleavage came to 0.1.
The result for U31C A47G A57G reads 0.2; that for G33U U43A U76A, 0.36.
With U31C U51C U54C A77U, the self-cleavage was found to be 0.77.
Regarding U31G A45G U51G A56U A75G U78C, the self-cleavage turned out to be 0.03.
On to C34A U43C A56U, for which the self-cleavage is 0.19.
The result for A35G A45G G55A A64G U67A U80C reads 0.57.
For U31A U60C C68U the value was 0.18; for U31C G36C U58A U80A, 0.08; for U31C G52A A56G, 0.6.
In the case of U31C A35U C39A A64G U76A, the self-cleavage worked out at 0.18.
With U31A U54C U74C, the self-cleavage was determined as 1.09.
The result for C34U A45G A57G U69C U80C reads 0.19; that for U31C C40U G53U A56U A75G, 0.13; that for A35G C37U U72C U80C, 1.31.
The result for U31A U60C U67C U76A A77G reads 0.17; that for U31C U49A A75G U80G, 0.49; that for G33A A56U U69A, 0.09.
The result for G33U U51A U58C reads 0.08; that for C32U A45G U51C U66C U67A, 0.13; that for G33A U60A C68U, 0.16.
Consider G33A U60C U67A U74C, for which the self-cleavage is 0.11.
The result for U31C A35U C62G A65G reads 0.06.
With U31C U41C A45U U74C, the self-cleavage was determined as 0.34.
The result for G33U C39U U41C U58C reads 0.2; that for G33A A64G U74A, 0.18; that for U31C A35G U43C U54A A64G C68G U78C, 0.08.
For C34G A35G A64G U78A the value was 0.68.
For U31C G33A A45G U49C A57G the value was 0.15; for U31C U49C A57U U58C U67C, 0.1.
Take U31G C40U U41C U69C: the self-cleavage is 0.19.
With G33A A57G A65G, the self-cleavage amounted to 0.1.
The result for U31G A64G U72A reads 0.01.
The result for U31C A35G C39U A64G reads 1.19; that for C34G C40A U69A, 0.17.
The result for U31C U43C U69C reads 0.32; that for C32U U51A U54C U67G U74C A75G, 0.07; that for C32U A35U A47U, 0.09.
Regarding G33A A45U A65G, the self-cleavage was 0.13.
For U31C A35U A56G U69C the value was 0.1; for C32U A56G U80C, 0.14; for G33A U43C U72C, 0.08.
For U31C U41C U54G U66C the value was 0.13; for C32U A35G A56U A57G, 0.12; for U31C C40A U60A U67C, 0.12.
For C32U U49C C62U G63C U72A U80A the value was 0.05.
In the case of G33U U51G U80A, the self-cleavage turned out to be 0.08.
On to C34U U72A U80A, for which the self-cleavage amounted to 0.51.
The result for G33A A45U G63C reads 0.12; that for A35C U48C A75U, 0.59.
The result for U31A U51C A64U U72C reads 0.19; that for C32U A45G U72A, 0.09.
The result for G33A U43C U80C reads 0.45; that for A35G A56G A57G, 1.23.
In the case of U31G A45G U66C, the self-cleavage amounted to 0.18.
Turning to C34G U48C U49C U67A, the self-cleavage was determined as 0.09.
For G33U U51A A65G the value was 0.2; for U31C A45G U51A U74C A75G, 0.73; for G33A U41C U49C U60A U80C, 0.09.
On to C32G U43C U54G U78C, for which the self-cleavage worked out at 0.19.
For U31C C34U A57G U67C the value was 0.05; for C34A U48C U60C U76C U80C, 0.11; for U31A G55U U69A U80A, 0.26.
As for U31G A45U U51C, the self-cleavage worked out at 0.11.
As to C34U U48C U74C C81A, the self-cleavage stood at 0.59.
U31C U48C G53A: the self-cleavage amounted to 0.81.
On to C32A U43C A45U U54C U78C, for which the self-cleavage was determined as 0.32.
As for G33A U41C C44G A56G G70A, the self-cleavage was 0.06.
With U31C U54A U58A U80C, the self-cleavage was 0.22.
The result for U31C A47U U76C reads 0.26; that for C32A U54C U72C, 0.07.
The result for U31C U48A G73A reads 0.48.
Consider G33U U43C A77G, for which the self-cleavage was 0.15.
Consider U31A U41C U60A A65G U69A, for which the self-cleavage stood at 0.15.
Take U31C U72A U78C C81U: the self-cleavage worked out at 0.87.
For U31C G33A U43A the value was 0.59.
In the case of C34U U49C U78G, the self-cleavage amounted to 0.12.
For G33A A45G U54C the value was 0.2; for U31C A57G A75G U76A, 0.65; for U31C A35U A56U U80C C81U, 0.18.
The result for U31C U49C U54C reads 0.13.
For the variant G33A A47G U80C, the self-cleavage was found to be 0.29.
On to U31A U43C A45U U51C A64G U69A, for which the self-cleavage stood at 0.07.
The result for U31C U41A C81U reads 0.26; that for U31G U49A U54C U60C, 0.14.
The result for U31C U72A C79A reads 0.99.
For A35G A56G U67A the value was 1.05; for U31C G42C U49C G70A, 0.04; for A35G A45G U80A, 1.27.
C32U A45G U48C U67C C68A: the self-cleavage was 0.06.
Consider A35G C37G A45G, for which the self-cleavage is 0.6.
As for G33A U41A U72G U78C, the self-cleavage was found to be 0.13.
The result for G33A U41A U49C A65G reads 0.04; that for U31A U60C G70U, 0.11.
On to U31C U67A U72C U78C, for which the self-cleavage worked out at 0.23.
U31C C40U U43A A56G C68U: the self-cleavage is 0.47.
For U31A U43C U66C the value was 0.24; for A35G A64G U69C A75G U80C, 0.93; for G33U U49C U60C, 0.18.
The result for C32A U41A U43C U69A reads 0.23.
For U31C C39A A57G U74C the value was 0.33; for A35G A45G A56U A65G C68U G70A, 0.4.
Turning to A35G A65G U69C, the self-cleavage was 0.71.
As for C32U A56U U78C, the self-cleavage came out at 0.15.
On to C32U C37U A56G, for which the self-cleavage came to 0.14.
For the variant A35G A57G A64G U67C, the self-cleavage worked out at 0.55.
For A35G C38A U43C U51A U54G U78A the value was 0.93; for G33U U51A U78C, 0.09.
On to A35C U54A U66C U72C, for which the self-cleavage was determined as 0.4.
For U31C G33A A35G C40U A57G U80A the value was 0.1; for U31C U69C U72C, 0.22.
The result for U31C A35C A45G reads 0.16; that for U31C C40A U41A A75U, 0.38.
In the case of U31C A35G U43C A47G U72A U78A, the self-cleavage came to 0.2.
For C34U U51A A65G U72A the value was 0.35; for C32U G55A A56G, 0.14; for G33U U49A A65G, 0.38.
Regarding U31C G52A U78C, the self-cleavage came to 0.94.
Regarding U31A G70A U72C A77C U78C, the self-cleavage was 0.09.
Consider C32U U48A A64G, for which the self-cleavage is 0.15.
For U31C C62A A75G U80C the value was 0.17.
With G33A U43A U60C, the self-cleavage stood at 0.52.
Regarding U31A G46U A56U, the self-cleavage worked out at 0.11.
The result for U31C A56C A57G U58C reads 0.09; that for U31A U51A G53C, 0.82; that for C32U U41C U78A, 0.13.
Consider U31C U41A C62U U72C, for which the self-cleavage was found to be 0.12.
The result for U31A U54A U66C reads 0.21; that for C34G U60C U69A, 0.11; that for G33C U48C G73C U78C, 0.13.
With U31C G33U U41C, the self-cleavage worked out at 0.5.
For U31C U43C U74C A75G the value was 0.58; for U31C A35G A47G U60A, 0.43; for U31C A45G A57G U76C, 0.34.
For A35G A64G U76A the value was 1.27; for U31C G53A A57G U60A U72A U76A A77G, 0.22; for G33A U51C U69C, 0.12.
The result for A35C C37U A56G A57G reads 0.15; that for C34A U60G U78C, 0.11; that for A35G A47G G53U A57U, 1.04.
In the case of C32U A35U A45G G63A U67C U76C, the self-cleavage was 0.17.
Take A35C U58A A65G U67C: the self-cleavage came to 0.17.
The result for U31A G46U U54C U58A U69G reads 0.15; that for A35G A47G C59U, 1.19.
For U31C G33A G36C A57G A64G C68U the value was 0.07.
For U31C C38U A57U A64G the value was 0.07; for U31C C39U A45G C62U U80C, 0.09; for U31A U43A U78C, 0.57.
Turning to U31C U43A G46A, the self-cleavage stood at 0.26.
For the variant C34U A35G G42A U66C, the self-cleavage came to 0.33.
The result for U31C U43C U80C reads 0.53; that for A35G C39U A65G C71A, 0.44.
